# Measured values reported in article PMC4336329 (PLoS ONE, 2015).
# In all, about 310,000 compounds went through this assay and about 2,200 (0.71%) showed an effect of 50% or more. Effects have a minus sign here. The list shows a part of the results. Where a SMILES comes first, the peptide text is derived from it. The star is where a group is joined. OPac = O=C(CO*)c1ccccc1; Bz = O=C(c1ccccc1)*
# Target: human ether-à-go-go-related gene (hERG) potassium channel (human, UniProt Q12809)
# Assay: primary screen, population patch clamp on CHO cells stably expressing hERG
# Sequence of human ether-à-go-go-related gene (hERG) potassium channel (Q12809 whole entry, looked up): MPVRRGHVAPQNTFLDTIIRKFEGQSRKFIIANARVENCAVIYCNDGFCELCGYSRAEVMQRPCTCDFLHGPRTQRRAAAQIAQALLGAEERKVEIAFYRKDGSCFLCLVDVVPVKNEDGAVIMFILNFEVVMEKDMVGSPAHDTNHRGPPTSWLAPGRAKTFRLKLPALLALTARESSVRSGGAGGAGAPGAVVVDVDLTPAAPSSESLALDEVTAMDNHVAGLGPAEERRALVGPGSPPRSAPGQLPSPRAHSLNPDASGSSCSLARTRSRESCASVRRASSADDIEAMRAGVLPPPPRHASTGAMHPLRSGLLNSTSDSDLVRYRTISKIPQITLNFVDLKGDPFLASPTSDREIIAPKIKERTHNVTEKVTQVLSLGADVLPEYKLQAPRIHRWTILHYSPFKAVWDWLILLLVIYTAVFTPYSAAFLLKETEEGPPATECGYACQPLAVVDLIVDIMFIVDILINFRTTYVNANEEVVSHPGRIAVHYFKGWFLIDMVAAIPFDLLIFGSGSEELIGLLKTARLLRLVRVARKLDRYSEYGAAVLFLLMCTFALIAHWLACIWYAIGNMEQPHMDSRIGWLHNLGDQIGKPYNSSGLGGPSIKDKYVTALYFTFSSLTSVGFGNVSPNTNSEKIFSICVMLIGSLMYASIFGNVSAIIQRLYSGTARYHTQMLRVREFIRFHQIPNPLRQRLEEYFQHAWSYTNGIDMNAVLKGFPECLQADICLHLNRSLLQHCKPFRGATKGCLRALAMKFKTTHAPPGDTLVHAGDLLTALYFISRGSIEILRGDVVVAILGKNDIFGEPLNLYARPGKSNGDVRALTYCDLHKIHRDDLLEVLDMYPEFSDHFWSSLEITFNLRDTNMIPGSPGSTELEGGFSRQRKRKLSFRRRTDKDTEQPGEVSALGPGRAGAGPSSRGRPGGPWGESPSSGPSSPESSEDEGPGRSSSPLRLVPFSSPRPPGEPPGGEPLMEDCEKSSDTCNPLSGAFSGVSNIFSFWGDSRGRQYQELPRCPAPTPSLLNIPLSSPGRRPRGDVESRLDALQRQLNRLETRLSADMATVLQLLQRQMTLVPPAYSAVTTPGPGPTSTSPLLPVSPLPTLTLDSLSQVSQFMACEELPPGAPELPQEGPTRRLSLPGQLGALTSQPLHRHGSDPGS
row,SMILES,"hERG current change (%, negative = inhibition) at 1uM [%]"
1,O=C(CSc1nc2ccc(Cl)cc2[nH]1)NC1CCCc2ccccc21 (stereo not shown),9.31
2,CC(C)(C)OC(=O)NCc1ccc(CNC(=O)c2[nH]cnc2C(=O)N[C@@H](Cc2ccccc2)C(=O)OC(C)(C)C)cc1,-4.54
3,Fc1cccc(Cc2noc(CN3CCN(c4cnccn4)CC3)n2)c1,6.65
4,CN1CCN(S(=O)(=O)c2cccc(C(=O)N(Cc3ccccc3)c3ccccc3)c2)CC1,-7.88
5,COc1ccc(NC(=O)CSc2nnc(-c3cccnc3)o2)cc1,-7.57
6,CC(/C=N/NC(=O)CSc1n[nH]c(=O)[nH]c1=O)=C\c1ccccc1,17.7
7,O=C1C2C3CC(C2C(=O)N1c1cccc(Cl)c1)[C@H](O)C3O (stereo partly shown),10.7
8,CC(C)n1c(-c2ccc(N(C)C)cc2)nc2ccccc21,-10.3
9,O=C(Nc1ccccc1)c1ccc(S(=O)(=O)NCC2CCCO2)cc1 (stereo not shown),8.3
10,Cc1ccc(NC(=O)COc2ccc(-n3ccnc3)cc2)cc1Cl,9.75
11,CCOc1ccc(S(=O)(=O)N2CCCCC2)cc1NC(=O)CN1C(=O)NC(C)(c2ccccc2)C1=O (stereo not shown),-1.31
12,COc1cccc(C(=O)N(C)c2nnc(-c3ccncc3)s2)c1,8.46
13,CC(C)(Oc1ccc(CCNC(=O)c2ccc(-c3ccccc3)o2)cc1)C(=O)O,14
14,COCc1c(C(=O)N2CCN(S(=O)(=O)c3ccccc3Cl)CC2)oc2ccccc12,5.51
15,Cc1cc(C=O)c(C)n1-c1ccc(Cl)c(C(=O)O)c1,11.2
16,O=C(NCc1ccccn1)C(=O)N/N=C/c1ccccc1O,9.96
17,CCc1cc(C(=O)c2ccccc2)c(N)s1,-0.56
18,Cc1cc(Cl)ccc1OCC(=O)Nc1ccncc1,10.9
19,CS(=O)(=O)N(CC(=O)Nc1ccccc1Sc1ccccc1)C1CCCCC1,10.2
20,CC(=O)c1nn(-c2cccc(Br)c2)cc1C(=O)c1ccco1,4.83
21,Cc1ccc(S(=O)(=O)CC(C)N2CCN(C3CCCCC3)CC2)cc1 (stereo not shown),-3.39
22,O=C(CN1CCCCCC1)NCCc1ccc(F)cc1.O=C(O)C(=O)O,0.367

row,SMILES,"hERG current change (%, negative = inhibition) at 1uM [%]"
1,O=C1NC(c2ccccc2)Oc2ccccc21 (stereo not shown),11.7
2,COc1cc2c(cc1NC(=O)CSc1nnc(Cc3cccs3)n1C)oc1ccccc12,9.32
3,Cc1ccc(C(=O)C2OC(=O)C(C)(C)C(=O)C2(C)C)cc1 (stereo not shown),2.32
4,O=C(CNC(=O)c1ccc(Cl)cc1)OC1CCOC1=O (stereo not shown),10.9
5,CCO[C@H]1OC(C(=O)N2CCN(Cc3ccccc3)CC2)=C[C@@H](c2ccc(C(F)(F)F)cc2)[C@@H]1CCCO,11.5
6,COc1ccc2[nH]c(=O)c(CNc3cccc(C)c3)cc2c1,3.98
7,COc1ccc(-n2cnc(N)c2C(=O)c2cccc([N+](=O)[O-])c2)cc1,6.43
8,O=C(O)c1cccc(NC(=O)c2ccccc2NC(=O)c2ccccc2F)c1,13.1
9,CC1=CC(c2ccc(Cl)cc2)n2nc(NS(=O)(=O)c3ccc(C)cc3)nc2N1 (stereo not shown),5.28
10,O=C(CNC(=O)c1ccccc1)NCC(=O)OCC(=O)c1ccccc1 (Bz-Gly-Gly-OPac),1.52
11,C/C(=N\Nc1nc(-c2ccc(C)cc2C)cs1)c1cc2ccccc2oc1=O,14.4
12,CC(C)(C)S(=O)(=O)c1cnc(-c2ccc(Cl)cc2)nc1N,9.11
13,CC1=CC2=NC(=O)CC(C)(C(=O)N(CC(=O)NC3CCCC3)Cc3ccc(Cl)cc3)N2C=C1 (stereo not shown),5.28
14,CC(=O)c1c(C)[nH]c(C(=O)Nc2c(C)n(C)n(-c3ccccc3)c2=O)c1C,16.4
15,CSCCC(Nc1ccc(S(=O)(=O)N2CCOCC2)cc1[N+](=O)[O-])C(=O)OCC(=O)NCC(C)C (stereo not shown),4.99
16,CN(Cc1ccc(C(C)(C)C)cc1)C(=O)Cc1ccc(S(=O)(=O)N2CCOCC2)s1,9.07
17,CN1CC(=O)Nc2ccc([N+](=O)[O-])cc2C1=O,17.6
18,CCOc1ccccc1N(CC(=O)NC1CCCCC1)S(=O)(=O)c1ccccc1,-0.305
19,CCC(C)(C)N1CC(=O)N(Cc2ccccc2)C(c2ccc(OC)cc2)C1=O (stereo not shown),-7.3
20,COc1cc(C(=O)N2CCc3ccccc32)cc(OC)c1OC,16.1
21,Cc1ccc(S(=O)(=O)N(C(=O)c2ccncc2)c2ccc(OC(=O)c3ccncc3)cc2)cc1,12.1
